Experimental data from the supplement of paper PMC3334620.
In all, about 33,000 sequences were measured (“E-score (-0.5 to 0.5)”: median about -0.035, highest 2% from about 0.35 on). The list shows a part of the results.

What follows are sequences tested against T1, Pdr3 (UniProt P33200) (assay: PBM E-score (8-mer binding enrichment) (E-score (-0.5 to 0.5)); higher = stronger / more preferred TF binding; most listed sequences are background and not binding sites). Details: protein concentration: 200 nM; construct: GST-full length.
T1 sequence: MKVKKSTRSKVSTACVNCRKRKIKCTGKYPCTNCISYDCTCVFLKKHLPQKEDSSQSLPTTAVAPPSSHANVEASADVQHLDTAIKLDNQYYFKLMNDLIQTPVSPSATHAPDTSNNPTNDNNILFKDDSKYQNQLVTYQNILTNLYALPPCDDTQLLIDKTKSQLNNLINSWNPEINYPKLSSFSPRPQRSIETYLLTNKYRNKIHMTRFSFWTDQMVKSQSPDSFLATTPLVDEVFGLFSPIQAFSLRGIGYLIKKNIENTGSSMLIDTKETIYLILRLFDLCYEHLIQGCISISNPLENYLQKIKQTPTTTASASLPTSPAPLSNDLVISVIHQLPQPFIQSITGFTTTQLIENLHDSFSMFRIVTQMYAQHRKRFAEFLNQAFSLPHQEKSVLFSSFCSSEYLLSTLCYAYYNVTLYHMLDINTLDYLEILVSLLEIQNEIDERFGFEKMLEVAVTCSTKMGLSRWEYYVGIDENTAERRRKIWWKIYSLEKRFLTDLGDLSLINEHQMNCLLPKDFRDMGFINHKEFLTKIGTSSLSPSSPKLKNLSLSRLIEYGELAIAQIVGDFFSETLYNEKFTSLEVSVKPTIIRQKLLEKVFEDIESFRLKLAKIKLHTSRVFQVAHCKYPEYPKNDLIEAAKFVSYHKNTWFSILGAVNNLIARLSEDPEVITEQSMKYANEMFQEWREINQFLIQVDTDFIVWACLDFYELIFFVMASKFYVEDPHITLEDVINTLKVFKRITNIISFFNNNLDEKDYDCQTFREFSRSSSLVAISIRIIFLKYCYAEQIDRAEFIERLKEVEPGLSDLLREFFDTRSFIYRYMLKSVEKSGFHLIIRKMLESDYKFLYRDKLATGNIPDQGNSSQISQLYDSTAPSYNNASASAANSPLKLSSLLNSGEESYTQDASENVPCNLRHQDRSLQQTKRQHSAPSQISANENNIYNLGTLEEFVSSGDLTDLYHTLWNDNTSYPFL
In short: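 Universal all-10-mer Agilent arrays, double-stranded by primer extension on fresh or once-stripped slides, were probed with about 100-200 nM GST-tagged yeast transcription factors made by PURExpress. Fluorescent anti-GST detected bound protein, and masliner normalised the scans. E-scores from the Universal PBM Analysis Suite were given to each ungapped eight-base word pooled with its reverse complement.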

Row | Sequence | PBM E-score
1 | AAGGTTAC | -0.175
2 | CGTTCGAC | -0.241
3 | ACCGACTC | -0.0651
4 | AGAAATGA | -0.165
5 | TACCAGAA | 0.0324
6 | ATGACCCC | 0.0641
7 | AAGGTCGG | 0.11
8 | AATAAGTG | -0.221
9 | AGCTTCTA | -0.137
10 | ACACATCT | -0.0807
11 | CCCACTAA | -0.0158
12 | CTATTACC | 0.0609
13 | ACGGGTAC | 0.0978
14 | AAGTAGAG | -0.251
15 | GGGCTGAC | 0.111
16 | TAAAATGA | 0.12
17 | CCAGTGGC | -0.0561
18 | GGGGGGAC | -0.307
19 | CCGCTGAG | 0.16
20 | ACTTGGAC | -0.026
21 | ACCTTCTC | 0.0469
22 | ACCTGCCG | -0.0199
23 | CAGTGATG | -0.265
24 | AAAAAATC | 0.00966
25 | AGAACACA | 0.00421

Row | Sequence | PBM E-score
26 | AGGTTAGC | -0.28
27 | CTATGTGA | -0.173
28 | CGAACATA | 0.0651
29 | CAGTCAAG | -0.183
30 | GGATCCCA | 0.202
31 | GCACCTAC | -0.107
32 | TAGACCAA | -0.077
33 | AGACATAG | -0.0533
34 | TCAATGAA | -0.0947
35 | AGCGGCTA | 0.0415
36 | ATTGCGCC | 0.0385
37 | AGTTCGTG | 0.0727
38 | CGTTGCTA | -0.167
39 | CTTAACGA | -0.0976
40 | CGTGTTGA | -0.0686
41 | AGCTATCG | -0.0842
42 | CCAGCCAA | -0.0622
43 | AGCTCACT | -0.176
44 | GTCAGGCA | -0.0365
45 | ACAAAGAG | -0.0751
46 | CAGTCGGC | 0.0494
47 | ATCTACGG | 0.202
48 | CGGATACG | 0.291
49 | CGCGGCAA | 0.341
50 | CCTCGTAG | -0.305

Row | Sequence | PBM E-score
51 | GTACTTGA | -0.168
52 | ACTACATG | -0.0268
53 | ATTTCATA | 0.121
54 | AGCCCCAG | -0.0422
55 | AATGAGCA | -0.246
56 | GCGAAGAC | -0.0584
57 | CGTTCTTC | 0.0181
58 | GAAAACCC | 0.0571
59 | GTTCACCA | -0.0164
60 | AATTCATC | -0.0935
61 | GCCGAAGC | 0.184
62 | AGGTGCCG | 0.207
63 | CCGTAGAG | -0.00528
64 | CGCTAAAC | -0.0316
65 | CAGTAAGC | -0.187
66 | ATGCCCAG | 0.0614
67 | CGGGCATC | 0.0745
68 | GATAATAA | 0.0825
69 | CGGAAGTA | 0.393
70 | CCCCACCG | 0.172
71 | GATATTGC | 0.0722
72 | ATAGTTGG | -0.175
73 | AGTCCGAA | 0.143
74 | CCCAAGGG | -0.254
75 | ACCGGGAC | 0.318

Row | Sequence | PBM E-score
76 | GTGACGAA | -0.0359
77 | AATAAGAG | 0.0338
78 | AGGAGTAC | -0.272
79 | AATTTTAT | 0.208
80 | CACCATTC | -0.0951
81 | ACCAATGA | -0.223
82 | ATTCAAAC | 0.012
83 | ACGGGAGA | 0.0307
84 | ACAGGTTA | -0.249
85 | CCCAACCA | 0.093
86 | AGTAGTCG | -0.123
87 | TGCGTAAA | -0.163
88 | TATGCTCA | 0.0839
89 | ATGTCCAA | 0.0494
90 | CCTTGCAA | -0.191
91 | GCTGTGAA | -0.19
92 | AGAGCAGC | -0.115
93 | TCCATTCA | 0.0142
94 | CAACTCGG | 0.116
95 | GACTGACC | -0.366
96 | ACCCACAA | 0.0366
97 | CAAGTTTC | -0.0413
98 | ACCATGCT | -0.00407
99 | CTAGCTGC | -0.197
100 | GACCAATA | -0.0553

Row | Sequence | PBM E-score
101 | AGTGCCAT | -0.255
102 | GCACTAGC | -0.0738
103 | CCGCCCTC | 0.212
104 | GGCTGCTA | -0.0805
105 | CCGTCGGA | 0.361
106 | ATCGGCCA | 0.0858
107 | ACCAGCCA | 0.0157
108 | CACGTACC | -0.16
109 | GACGACGC | 0.00312
110 | CGTGTCAC | 0.0629
111 | CCTTATTA | -0.176
112 | AAGGCATT | -0.117
113 | AAAGGTGT | 0.086
114 | CAGGACTC | -0.198
115 | CCCCAGAG | -0.182
116 | ACCCACTC | 0.0407
117 | AATTGACT | -0.00788
118 | AGCGGTCG | -0.271
119 | AAACTTGC | -0.0125
120 | ATGTTCTA | -0.102
121 | ACCTCCCA | -0.244
122 | ATACGTCA | -0.00777
123 | CGATGGTC | -0.034
124 | CAGCAACA | 0.0154
125 | ATCAATCG | 0.0277

Row | Sequence | PBM E-score
126 | AGGCACCC | -0.246
127 | CCGGGCAC | 0.364
128 | GAAGTCAC | -0.0349
129 | CTCTCAAG | -0.108
130 | ATTGTGCA | -0.0815
131 | ATCGACTG | 0.0265
132 | TATTTACA | -0.097
133 | CTCCCCCC | -0.136
134 | AGCTCTTC | 0.0701
135 | ATTCGGAG | 0.2
136 | CCTTGTAG | -0.149
137 | CATAATGA | -0.125
138 | GGGCCCGA | 0.269
139 | CCTGCTTC | -0.0723
140 | CATATGCA | -0.0934
141 | GGAAGGCC | 0.00722
142 | GTGCAAAC | -0.0815
143 | ACCCAAAG | -0.146
144 | GTGTAGCA | -0.244
145 | CGGGAGCC | 0.169
146 | CCTGTCCG | 0.138
147 | AAGGCAGC | -0.0731
148 | ACATATTG | -0.137
149 | CACCCGGG | 0.398
150 | CCAGAAAG | 0.0367

Row | Sequence | PBM E-score
151 | CGTCAACA | 0.0257
152 | AGCTTAGA | -0.115
153 | AGGTGATA | -0.0755
154 | CAAGAGTG | -0.149
155 | TACGAAGA | -0.188
156 | AGCTTACT | -0.113
157 | ATGCCGTC | 0.225
158 | GCTTAATA | -0.125
159 | AAACGGGC | 0.113
160 | TCACTCAA | -0.186
161 | GCTTACCC | -0.197
162 | ATATTTCG | 0.147
163 | AAGTATGC | -0.214
164 | ATTCGTTG | 0.207
165 | GATGGGAC | 0.13
166 | GATGTAAC | 0.0399
167 | ATGGTCTG | -0.0441
168 | CATTCGAA | -0.136
169 | GAATGAAA | 0.102
170 | CTTATAAG | 0.135
171 | ACTAGATG | -0.118
172 | CGGTGTCA | -0.0513
